Variants at the background level are over-represented here.
B1: TPR 5TU (parent)
chain: GGAUCUUCUCGAUCUAACAAAAAAGACAAAUCUGCCACAAAGCUUGAGAGCAUCUUCGGAUGCAGAGGCGGCAGCCUUCGGUGGCGCGAUAGCGCCAACGUUCUCAACUAUGACACGCAAAACGCGUGCUCCGUUGAAUGGAGUUUAUCAUG

Variants of: B1
Experiment: polymerase ribozyme fitness, log enrichment relative to wild type (log ratio); higher = more active; in vitro selection for triplet polymerase activity
How it was run: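 Only genotypes with ≥10 input reads and ≥1 read per output were kept after Illumina sequencing of input and output libraries. These libraries were PCR-built, transcribed mutants of each subunit of a heterodimeric triplet polymerase ribozyme, each put through one triplicate in vitro selection round with frozen incubation at −7 °C, gel excision of extended constructs, streptavidin-bead capture and RT-PCR. Fitness is a logarithmic ratio of genotype enrichment to wild-type enrichment, from inverse-variance-weighted replicate averages, with the logarithm in base 2.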

Row | Variant | polymerase ribozyme fitness (log ratio)
1 | A24U C36G A37C G67C C95A A106C A107C C108G U134G U145C | ≤ -4.2
2 | A24U C38A G46A G68U C95U A138C | ≤ -4.2
3 | A24U C38U G74C U102A U144G | ≤ -4.2
4 | A24U C43A A60C C96A A119U G126A | ≤ -4.2
5 | A24U C43U G58A A60C | ≤ -4.2
6 | A24U C54A G86A | -3.38
7 | A24U C54G C75G C76U A89C C149G | ≤ -4.2
8 | A24U C63A | 1.21
9 | A24U C75A A91U | ≤ -4.2
10 | A24U C76G A138G | ≤ -4.2
11 | A24U C76U G88A G128C A142C | ≤ -4.2
12 | A24U C87A | ≤ -4.2
13 | A24U C93U A119C | -1.98
14 | A24U C93U A142C | -2.21
15 | A24U C95U C96G C99G U104G A106G A137G | ≤ -4.2
16 | A24U C96U | 0.0587
17 | A24U G34U A47C C95G C108A A110G A138C A147C G152A | ≤ -4.2
18 | A24U G46A U55A C72G G83A C93G A120U G143A | ≤ -4.2
19 | A24U G58A A64C C85A G94C C95G A106C A115U C118U | ≤ -4.2
20 | A24U G58C G88A C93U A121G | ≤ -4.2
21 | A24U G58C U104A G141U | -1.93

Row | Variant | polymerase ribozyme fitness (log ratio)
22 | A24U G59A G92A G140U | ≤ -4.2
23 | A24U G62C A89G G136U | ≤ -4.2
24 | A24U G62U C96A G117A | -1.86
25 | A24U G62U C99G | ≤ -4.2
26 | A24U G68C G81C G94A A98C U104C | ≤ -4.2
27 | A24U G74C U104G C118A A121G | ≤ -4.2
28 | A24U G80C C85G A91U C95G U101A | ≤ -4.2
29 | A24U G80C G86U C125G A137C | ≤ -4.2
30 | A24U G83A A107U G152A | ≤ -4.2
31 | A24U G94A G143U | -3.4
32 | A24U G140A | -4.12
33 | A24U U44A A60C C79U | ≤ -4.2
34 | A24U U44A G48C G83A U101A | ≤ -4.2
35 | A24U U44A G48U G59U C87A C103G | ≤ -4.2
36 | A24U U45A G83A G88C C118G C129G U145G | ≤ -4.2
37 | A24U U45A U53A G81U C87G A137G G143U U146A | ≤ -4.2
38 | A24U U45C U101G A106G | 0.694
39 | A24U U45G G92C | -2.88
40 | A24U U53A G80A C85U A142C | ≤ -4.2
41 | A24U U53A U55A G68C C76A C85G | ≤ -4.2
42 | A24U U53G G92C C96G C118G | ≤ -4.2

Row | Variant | polymerase ribozyme fitness (log ratio)
43 | A24U U55A | -0.466
44 | A24U U56A C57A G58A A60C A66U C96U C105U G117U A142C | ≤ -4.2
45 | A24U U56C G62A A64G G68C G83A G124U U146A | ≤ -4.2
46 | A24U U61A | -1.72
47 | A24U U61A C76G G88A C95G | ≤ -4.2
48 | A24U U82G G83C | -1.55
49 | G25A A26G C85G G100A C114A A138U | ≤ -4.2
50 | G25A A26G G58C U61G | ≤ -4.2
51 | G25A A28U A52G C85G C99G U102G G136U G141A U145A U146A | ≤ -4.2
52 | G25A A29U U33G U53A C95G A113C | ≤ -4.2
53 | G25A A30U U56A U135A U144G | ≤ -4.2
54 | G25A A52G C87A C93U A98U A106C | ≤ -4.2
55 | G25A A60G G80U G83A U102G A113U C125A | ≤ -4.2
56 | G25A A64G G88A | ≤ -4.2
57 | G25A C32A A40C C123A G124A A138C | ≤ -4.2
58 | G25A C54A A66U C76G C125G U145A | ≤ -4.2
59 | G25A C54U C96U A150U | -0.00287
60 | G25A C57U C76A A89G C93U | ≤ -4.2
61 | G25A C93G A119U | ≤ -4.2
62 | G25A G42C A52G C95U | ≤ -4.2
63 | G25A G42U C95U U102G U134A | ≤ -4.2

Row | Variant | polymerase ribozyme fitness (log ratio)
64 | G25A G46C G83C A89U C103G G140A | ≤ -4.2
65 | G25A U61A | -3.19
66 | G25A U82C C105G A121U | -4.07
67 | G25C A26C A28C A49U C96U | ≤ -4.2
68 | G25C A26G C51U C85U U104A A107C | ≤ -4.2
69 | G25C A39U A73G C85U C149G | ≤ -4.2
70 | G25C A40U G58U G67U C85A A150U | ≤ -4.2
71 | G25C A41C U55A U61A C116U U144A | ≤ -4.2
72 | G25C A60G G83C C96U G141U | -2.48
73 | G25C A64C C96U | ≤ -4.2
74 | G25C A64G | ≤ -4.2
75 | G25C A64G A113U | ≤ -4.2
76 | G25C A64G G86U G124C G126U G136A | ≤ -4.2
77 | G25C A66G A106C | ≤ -4.2
78 | G25C A66G C85A | ≤ -4.2
79 | G25C A97G | -2.53
80 | G25C A119C | -2.68
81 | G25C C27U U44G C72G C76A C87G | ≤ -4.2
82 | G25C C32U U55A U56A G140U | ≤ -4.2
83 | G25C C54A C105U | -3.21

Source: the RNAGym collection of RNA variant scans (doi:10.1073/pnas.2313332121)
